The values that follow come from publication PMC4336329 (PLoS ONE, 2015).

Screen size: about 310,000 compounds; about 14,000 (4.5%) showed an effect of 50% or more. The effect is printed as a negative number. This is one part of the list.
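Further: peak tail current of the secondary pulse compared with the same well before compound.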

The target of this test is human ether-à-go-go-related gene (hERG) potassium channel (human, UniProt Q12809). The experiment in a line: primary screen, population patch clamp on CHO cells stably expressing hERG.
Sequence of human ether-à-go-go-related gene (hERG) potassium channel (Q12809 whole entry, looked up): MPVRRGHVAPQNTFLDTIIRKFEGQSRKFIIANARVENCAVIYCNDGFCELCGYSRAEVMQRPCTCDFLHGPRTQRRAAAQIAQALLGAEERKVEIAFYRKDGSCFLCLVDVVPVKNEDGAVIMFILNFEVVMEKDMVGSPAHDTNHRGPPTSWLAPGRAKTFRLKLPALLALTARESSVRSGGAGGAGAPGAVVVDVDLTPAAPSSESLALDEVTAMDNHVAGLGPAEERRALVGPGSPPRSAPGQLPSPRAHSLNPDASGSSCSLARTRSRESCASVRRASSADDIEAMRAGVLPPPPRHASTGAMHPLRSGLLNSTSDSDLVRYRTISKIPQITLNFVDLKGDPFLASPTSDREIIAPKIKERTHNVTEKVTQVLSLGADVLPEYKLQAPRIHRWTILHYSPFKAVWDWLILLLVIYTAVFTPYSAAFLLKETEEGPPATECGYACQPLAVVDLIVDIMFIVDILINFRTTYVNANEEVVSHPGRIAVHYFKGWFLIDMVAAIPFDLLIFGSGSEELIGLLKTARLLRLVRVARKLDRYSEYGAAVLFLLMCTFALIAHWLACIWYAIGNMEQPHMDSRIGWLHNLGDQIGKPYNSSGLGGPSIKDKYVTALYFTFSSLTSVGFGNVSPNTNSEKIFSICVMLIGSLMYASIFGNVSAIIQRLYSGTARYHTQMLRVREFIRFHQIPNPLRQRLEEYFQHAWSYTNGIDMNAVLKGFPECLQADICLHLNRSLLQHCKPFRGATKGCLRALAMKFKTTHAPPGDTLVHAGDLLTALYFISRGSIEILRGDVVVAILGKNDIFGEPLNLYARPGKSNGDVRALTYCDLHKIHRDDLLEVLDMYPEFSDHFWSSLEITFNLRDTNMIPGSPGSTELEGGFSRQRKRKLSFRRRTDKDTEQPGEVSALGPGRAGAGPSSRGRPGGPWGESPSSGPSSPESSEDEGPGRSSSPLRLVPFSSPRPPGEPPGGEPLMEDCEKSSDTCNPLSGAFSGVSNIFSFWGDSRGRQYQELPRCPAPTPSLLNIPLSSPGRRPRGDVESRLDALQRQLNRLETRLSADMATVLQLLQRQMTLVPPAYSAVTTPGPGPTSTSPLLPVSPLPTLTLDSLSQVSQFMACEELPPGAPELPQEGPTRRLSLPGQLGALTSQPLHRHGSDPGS
In the case of `CCn1c2ccc(F)cc2c2nnc(NN)nc21`, the “hERG current change (%, negative = inhibition) at 10uM” value is reported as -9.93%.
For `Nc1nc(NCC2CCCO2)nc(Nc2ccc(Cl)cc2)c1[N+](=O)[O-]` (centres unmarked) the value was 12.6%; for `CCOC(=O)C1ON2CCCCC2C1(O)C(F)(F)F` (centres unmarked), 19.7%; for `O=C(O)CCSc1ccc([N+](=O)[O-])cc1[N+](=O)[O-]`, 22.7%.
For `Oc1ccc(-c2[nH]ncc2-c2cccc3cccnc23)c(O)c1` the value was 32.1%; for `CCOC(=O)Cn1cnc2c(C#N)c3n(c2c1=O)CCCCC3`, -9.52%.
Consider `O=C(COc1ccccc1)N(CCc1ccccc1)c1nc(-c2ccc(F)cc2)cs1`, for which the “hERG current change (%, negative = inhibition) at 10uM” value was determined as 6.69%.
Consider `Cc1cccc(C(=O)NNc2ncnc3c2cnn3C)c1`, for which the “hERG current change (%, negative = inhibition) at 10uM” value is 11.2%.
Consider `CCOC1CCCCC1NS(=O)(=O)c1ccc(Cl)cc1` (centres unmarked), for which the “hERG current change (%, negative = inhibition) at 10uM” value is -8.18%.
Consider `COc1cc(C(=O)OCC(=O)c2cc(C)n(CC3CCCO3)c2C)ccc1OCC(=O)N1CCOCC1` (centres unmarked), for which the “hERG current change (%, negative = inhibition) at 10uM” value worked out at 7.69%.
As for `O=C(c1cc2ccccc2o1)n1nnc2ccccc21`, the “hERG current change (%, negative = inhibition) at 10uM” value worked out at 7.25%.
For the molecule `COc1ccccc1C1=NOC(COC(=O)c2ccc3ccccc3n2)C1` (centres unmarked), the “hERG current change (%, negative = inhibition) at 10uM” value is on record as -14.9%.
Turning to `Cc1cc(C)cc(OCC(=O)N(Cc2ccccc2)C2CCS(=O)(=O)C2)c1` (centres unmarked), the “hERG current change (%, negative = inhibition) at 10uM” value is -20.9%.
In the case of `Cc1ccc(NC(=O)/C=C/c2ccco2)cc1S(=O)(=O)N1CCCCCC1`, the “hERG current change (%, negative = inhibition) at 10uM” value was -15.6%.
Consider `O=C(CCC(=O)N1CCN(S(=O)(=O)c2ccc(Cl)cc2)CC1)Nc1cccc(Br)c1`, for which the “hERG current change (%, negative = inhibition) at 10uM” value was -37%.
For `COC(=O)c1ccc(NC(=O)Cc2ccccc2)cc1` the value was -5.36%; for `C=CCn1c(-c2sccc2C)n[nH]c1=S`, 25.6%; for `CC(=O)N1c2ccc(S(=O)(=O)N(C)CC(=O)Nc3ccccc3C)cc2CC1C` (centres unmarked), 18.9%.
Take `Cc1ccc2c(N)c(C)ccc2c1`: the “hERG current change (%, negative = inhibition) at 10uM” value is 8.56%.
Regarding `O=C(CSc1ccc(-c2ccncc2)nn1)c1ccc(Cl)cc1`, the “hERG current change (%, negative = inhibition) at 10uM” value came out at 15.3%.
The result for `CCOC(=O)CNC(=O)Cn1cnc2c(nnn2-c2cccc(Cl)c2)c1=O` reads -20.3%; that for `CC(C)(NC(=O)c1ccccc1)c1nc2ccccc2s1`, -0.808%; that for `Cc1nonc1OCCNCCNc1ccc([N+](=O)[O-])cc1Cl`, -49.7%.
On to `Cn1ccnc1SCC(=O)c1ccc(OC(F)F)cc1`, for which the “hERG current change (%, negative = inhibition) at 10uM” value was -26.6%.
Take `Cc1cc(COc2ccccc2OCCN2CCN(C)CC2)no1.Cl`: the “hERG current change (%, negative = inhibition) at 10uM” value is given as -8.36%.
With `Cc1cc(C)cc(CC2CC(=O)N(c3ccc([N+](=O)[O-])cc3)C2=O)c1` (centres unmarked), the “hERG current change (%, negative = inhibition) at 10uM” value is recorded as 9.78%.
As to `O=C(NC12CC3CC(CC(C3)C1)C2)c1ccc(Br)o1`, the “hERG current change (%, negative = inhibition) at 10uM” value stood at 4.63%.
Take `CSc1nnc(NC(=O)c2cc3ccccc3oc2=O)s1`: the “hERG current change (%, negative = inhibition) at 10uM” value was 2.45%.
In the case of `COc1ccccc1NS(=O)(=O)c1cc(NC(=O)c2[nH]c(C)c(C(C)=O)c2C)ccc1N1CCOCC1`, the “hERG current change (%, negative = inhibition) at 10uM” value is on record as 0.128%.
As for `O=CNCCCc1nc2ccccc2n1CCc1ccccc1`, the “hERG current change (%, negative = inhibition) at 10uM” value is -2.98%.
As to `COc1ccc(-c2nc(-c3ccccc3)[nH]c(=O)c2C#N)cc1`, the “hERG current change (%, negative = inhibition) at 10uM” value is given as 15.9%.
`Cc1cccc2sc(NC(=O)C3=NN(c4ccccc4)C(=O)CC3)nc12`: the “hERG current change (%, negative = inhibition) at 10uM” value amounted to 6.14%.
As for `COc1ccc(NC(=O)c2ccc(N(C)S(C)(=O)=O)cc2)cc1OC`, the “hERG current change (%, negative = inhibition) at 10uM” value stood at 7.23%.
On to `CCC(=O)Nc1ccc(NC(=S)NC(=O)c2oc3ccccc3c2C)cc1`, for which the “hERG current change (%, negative = inhibition) at 10uM” value is on record as 7%.
Consider `NS(=O)(=O)c1ccc(NC(=O)COC(=O)c2cccc(S(=O)(=O)N3CCCC3)c2)cc1`, for which the “hERG current change (%, negative = inhibition) at 10uM” value is reported as 9.19%.
On to `COC(=O)Cc1ccc(NC(=S)NNC(=O)c2ccccc2Br)cc1`, for which the “hERG current change (%, negative = inhibition) at 10uM” value is on record as 6.03%.
For `NC(=O)C1CCN(C(=O)CN(c2cccc(C(F)(F)F)c2)S(=O)(=O)c2ccccc2)CC1`, the “hERG current change (%, negative = inhibition) at 10uM” value is -2.35%.
`O=c1[nH]c(N2CCCCC2)nc2ncn(Cc3ccccc3)c12`: the “hERG current change (%, negative = inhibition) at 10uM” value is 7.95%.
The result for `COC(=O)c1cc(NC(=O)Nc2ccccc2OC)cc(C(=O)OC)c1` reads -2.89%; that for `COC(C[C@H]1O[C@@H]1[C@H](O)COCc1ccccc1)OC`, 23.6%; that for `COc1cc(/C=N/NC(=O)c2cccnc2)ccc1OS(=O)(=O)c1ccc(F)cc1`, -15.5%.
For `CCc1ccc2nc3c(c(C(=O)O)c2c1)CCC3` the value was 2.61%; for `CCOC(=O)c1c(C)[nH]c(C(=O)C(C)OC(=O)c2ccc(NC(=O)CC#N)cc2)c1C` (centres unmarked), 5.66%; for `O=S(=O)(c1ccc2ccccc2c1)n1cnc2ccccc21`, -4.44%.
For `CN1C(C(=O)NCC2CC2)CC2Cn3c(nc4cc(Cl)c(Cl)cc43)C21` (centres unmarked) the value was -34.3%; for `CSc1nnc(Cn2c(=O)sc3ccccc32)n1-c1ccccc1`, -4.4%; for `CCCCNC(=O)c1sc(=S)n2c1[nH]c(=O)c1ccccc12`, 3.36%.
Turning to `CC(C)CC(=O)Nc1ccc(C(=O)COc2ccc(-c3nnco3)cc2)cc1`, the “hERG current change (%, negative = inhibition) at 10uM” value came out at 1.78%.
With `CCOC(=O)C(NC(C)=O)(Nc1ccc(S(=O)(=O)Nc2nccs2)cc1)C(F)(F)F` (centres unmarked), the “hERG current change (%, negative = inhibition) at 10uM” value was determined as 13.1%.
Consider `Cc1ccc(C)c(NC(=O)c2cnn(-c3ccccc3)c2C)c1`, for which the “hERG current change (%, negative = inhibition) at 10uM” value is 14.2%.
`S=C(NCc1ccco1)N1CCN(c2ccc(Cl)cc2)CC1`: the “hERG current change (%, negative = inhibition) at 10uM” value was determined as 20%.
For the molecule `CCCC(C)NC(=O)CN1C(=O)NC2(CCc3ccccc32)C1=O` (centres unmarked), the “hERG current change (%, negative = inhibition) at 10uM” value was determined as 22.2%.
As to `Cc1ccc(-c2noc(CSc3nnc(CCc4ccccc4)n3-c3ccccc3)n2)cc1`, the “hERG current change (%, negative = inhibition) at 10uM” value is -17.5%.
On to `CCc1ccc2[nH]c3nc(N/N=C/c4cccc(O)c4)nnc3c2c1`, for which the “hERG current change (%, negative = inhibition) at 10uM” value came to 24.8%.
The result for `CCOC(=O)Cn1c(-c2ccc(OC)cc2)c(-c2ccc(OC)cc2)nnc1=O` reads 9.79%.
As to `COc1ccc(-c2cc(C(=O)Nc3ccc4c(c3)OCO4)no2)cc1`, the “hERG current change (%, negative = inhibition) at 10uM” value was determined as 20.3%.
With `O=C(Nc1cccc(F)c1)c1cccnc1N1CCOCC1`, the “hERG current change (%, negative = inhibition) at 10uM” value is recorded as -0.522%.
As for `Cc1ccc(CNC(=O)c2cc(=O)c3ccc(C)cc3o2)cc1`, the “hERG current change (%, negative = inhibition) at 10uM” value came out at 14.5%.
Turning to `O=C(Nc1ccc2oc(=O)ccc2c1)c1cccnc1Cl`, the “hERG current change (%, negative = inhibition) at 10uM” value is on record as -13.4%.
With `Clc1cccc(-c2ccc(C=Nc3ccc(N4CCOCC4)cc3)o2)c1`, the “hERG current change (%, negative = inhibition) at 10uM” value amounted to 5.17%.
The result for `CC(C)NS(=O)(=O)c1ccc(OCC(N)=O)c(Cl)c1` reads 21.6%; that for `Cc1cc(-c2ccc(C)c(S(=O)(=O)NCCCN(Cc3ccccc3)C(C)C)c2)on1`, -36.9%; that for `COc1ccccc1N1CC(C(=O)Nc2nnc(SCC(=O)NC(C)C)s2)CC1=O` (centres unmarked), 20.1%.
For the molecule `O=C(O)CCn1c(-c2ccccc2)cc2ccccc21`, the “hERG current change (%, negative = inhibition) at 10uM” value amounted to 9.79%.
In the case of `c1ccc(COc2ccc(OCCCn3cncn3)cc2)cc1`, the “hERG current change (%, negative = inhibition) at 10uM” value is given as -19.4%.
Turning to `O=C(Nc1ccc(C(=O)N2CCOCC2)cc1)c1cc(-c2cccnc2)nc2ccc(Cl)cc12`, the “hERG current change (%, negative = inhibition) at 10uM” value is recorded as 10.6%.
Regarding `Cc1ccc(C(=O)CNc2cccc([N+](=O)[O-])c2)cc1`, the “hERG current change (%, negative = inhibition) at 10uM” value was determined as 20%.
Take `C=C(C)CNC(=S)NN=C1c2ccccc2-c2ccccc21`: the “hERG current change (%, negative = inhibition) at 10uM” value is on record as 6.79%.
The result for `COC(=O)CCS(=O)(=O)c1cc(Cl)ccc1Cl` reads 9.61%; that for `NC(=O)CCCn1c(C(=O)c2ccc(Cl)cc2)c2ccc([N+](=O)[O-])cc2[n+]1[O-]`, -74.1%.
For `Cc1ccc(C)c(N2CCN(c3ccncc3N)CC2)c1` the value was -47.8%; for `NC(=O)c1ccc(NC(=O)Cc2csc(-c3ccccc3)n2)cc1`, 9.31%; for `CCOC(=O)c1c(C)[nH]c(C(=O)COC(=O)/C=C/c2ccc(OC(F)F)cc2)c1C`, 2.3%.
Turning to `S=c1[nH]ccn1Cc1ccccc1`, the “hERG current change (%, negative = inhibition) at 10uM” value came out at 13.3%.
With `Cc1ccc(NC(=O)CC2C(=O)NCCN2C(=S)Nc2ccccc2)c(C)c1` (centres unmarked), the “hERG current change (%, negative = inhibition) at 10uM” value came out at 2.6%.
As for `CC(=O)CSc1nnc(-c2ccc(S(=O)(=O)N3CCC(C)CC3)cc2)o1`, the “hERG current change (%, negative = inhibition) at 10uM” value stood at 14.2%.
In the case of `COC(=O)CC1c2ccccc2S(=O)(=O)N1Cc1ccccc1` (centres unmarked), the “hERG current change (%, negative = inhibition) at 10uM” value was -0.294%.
For `CCCCCn1c(CN2CCN(C(=O)c3ccco3)CC2)nc2c1c(=O)n(C)c(=O)n2C` the value was -60.5%.
With `COc1cccc(CNC(=O)C2CCN(C(=O)N3CC(C)Oc4ccccc43)CC2)c1` (centres unmarked), the “hERG current change (%, negative = inhibition) at 10uM” value is -11.8%.
On to `Cc1ccccc1NC(=O)C1Cc2ccccc2C(=O)O1` (centres unmarked), for which the “hERG current change (%, negative = inhibition) at 10uM” value is on record as 4.61%.
Turning to `CCOC(=O)Cn1c(=N)n(CCOc2ccc(F)cc2)c2ccccc21.Cl`, the “hERG current change (%, negative = inhibition) at 10uM” value is recorded as -65.8%.
For the molecule `CCCOc1ccc(Br)cc1/C=N/O`, the “hERG current change (%, negative = inhibition) at 10uM” value is recorded as -13.4%.
In the case of `NS(=O)(=O)c1ccc(N/N=C2/CCCc3ccccc32)c([N+](=O)[O-])c1`, the “hERG current change (%, negative = inhibition) at 10uM” value came to 24.6%.
For the molecule `Cc1ccc(-c2nnn(CC(=O)N(c3cccc(O)c3)C(C(=O)NC(C)(C)C)c3cccs3)n2)o1` (centres unmarked), the “hERG current change (%, negative = inhibition) at 10uM” value is 9.58%.
With `Cn1c(=O)c(C(=O)COc2ccc(F)cc2Cl)c(N)n(Cc2ccccc2)c1=O`, the “hERG current change (%, negative = inhibition) at 10uM” value turned out to be 17.8%.
`c1csc(CCNc2ncnc3sc4c(c23)CCC4)c1`: the “hERG current change (%, negative = inhibition) at 10uM” value is -26.6%.
On to `Cc1cc(C(=O)Cn2nnc(-c3ccc(Cl)cc3)n2)c(C)n1-c1ccccc1`, for which the “hERG current change (%, negative = inhibition) at 10uM” value amounted to 6.13%.
As to `COc1cccc(CNC(=O)CN(c2cc(C)cc(C)c2)S(=O)(=O)c2c(C)noc2C)c1`, the “hERG current change (%, negative = inhibition) at 10uM” value is reported as -6.66%.
For `COc1ccc(/C=N/NC(=O)c2cccnc2)cc1COc1ccc(NC(C)=O)cc1` the value was 20%.
